Article PMC4336329 (PLoS ONE, 2015)
The campaign covered roughly 310,000 compounds. About 2,200 (0.71%) showed an effect of 50% or more. Effects have a minus sign here. Some of the results follow.

Molecular target: human ether-à-go-go-related gene (hERG) potassium channel (human, UniProt Q12809)
Experiment: primary screen, population patch clamp on CHO cells stably expressing hERG

human ether-à-go-go-related gene (hERG) potassium channel, sequence (Q12809 whole entry, looked up): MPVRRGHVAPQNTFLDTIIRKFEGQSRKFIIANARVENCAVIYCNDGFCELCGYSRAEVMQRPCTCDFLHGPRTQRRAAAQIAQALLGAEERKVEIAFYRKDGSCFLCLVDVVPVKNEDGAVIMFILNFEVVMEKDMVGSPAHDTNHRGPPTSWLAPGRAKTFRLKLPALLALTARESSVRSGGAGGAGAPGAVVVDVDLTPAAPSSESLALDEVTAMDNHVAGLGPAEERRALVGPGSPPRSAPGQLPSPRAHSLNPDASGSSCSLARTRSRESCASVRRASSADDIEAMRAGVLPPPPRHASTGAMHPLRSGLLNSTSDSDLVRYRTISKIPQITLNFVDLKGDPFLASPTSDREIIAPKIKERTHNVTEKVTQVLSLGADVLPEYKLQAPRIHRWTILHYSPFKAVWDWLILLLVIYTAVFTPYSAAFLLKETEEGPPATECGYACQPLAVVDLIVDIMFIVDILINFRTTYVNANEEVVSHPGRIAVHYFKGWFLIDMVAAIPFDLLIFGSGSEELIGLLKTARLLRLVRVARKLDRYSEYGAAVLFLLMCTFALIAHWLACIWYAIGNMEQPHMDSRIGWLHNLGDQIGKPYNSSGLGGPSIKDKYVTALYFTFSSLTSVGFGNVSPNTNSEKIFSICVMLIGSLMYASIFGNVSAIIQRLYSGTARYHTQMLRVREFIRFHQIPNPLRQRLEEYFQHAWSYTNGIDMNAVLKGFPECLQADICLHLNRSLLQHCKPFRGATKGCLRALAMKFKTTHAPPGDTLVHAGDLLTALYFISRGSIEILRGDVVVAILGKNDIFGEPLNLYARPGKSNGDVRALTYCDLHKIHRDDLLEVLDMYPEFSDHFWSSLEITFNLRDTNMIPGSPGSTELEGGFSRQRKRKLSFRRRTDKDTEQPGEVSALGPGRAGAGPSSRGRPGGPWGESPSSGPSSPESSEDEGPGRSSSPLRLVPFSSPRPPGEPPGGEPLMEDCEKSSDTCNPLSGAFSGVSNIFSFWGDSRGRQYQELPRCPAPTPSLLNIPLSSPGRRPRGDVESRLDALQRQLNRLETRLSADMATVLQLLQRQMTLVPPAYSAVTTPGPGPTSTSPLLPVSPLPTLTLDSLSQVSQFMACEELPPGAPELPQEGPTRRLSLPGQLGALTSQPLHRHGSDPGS

| Compound | hERG current change (%, negative = inhibition) at 1uM [%] |
| --- | --- |
| Cc1ccc[n+](CC(=O)Nc2cc(C(F)(F)F)ccc2N2CCOCC2)c1.[Cl-] | 10.9 |
| CNC(=O)CN(C1CCCCC1)S(=O)(=O)c1ccc(OC)c(Cl)c1 | 13.1 |
| CC(C)(C)C1CCc2onc(C(=O)Nc3ccc(F)cc3F)c2C1 (stereo not shown) | 1.2 |
| Cc1c(Br)c([N+](=O)[O-])nn1C(C)C(=O)Nc1nccs1 (stereo not shown) | 12.3 |
| O=C(NN1C(=O)c2ccccc2NC1c1ccc([N+](=O)[O-])o1)c1ccccc1 (stereo not shown) | 3.92 |
| COc1ccc(NC(=O)CSc2nc3c(c(=O)n2-c2ccccc2)SCC3)c(OC)c1 | -1.33 |
| CC(C)n1c(SCC(=O)Nc2ccc(F)cc2)nnc1C1CC1 | -2.72 |
| CCS(=O)(=O)Nc1ccc(-c2nnc(SCC(=O)c3cccc(OC)c3)o2)cc1 | 12.7 |
| Cc1cccc(NC(=O)c2ccc([N+](=O)[O-])s2)c1C | 4.41 |
| CCn1cc(CNC(=O)c2ccc(Cl)c([N+](=O)[O-])c2)c(C)n1 | 10 |
| CC(C)c1cccc(C(C)C)c1NC(=O)CCN1C(=O)NC2(CCCC2)C1=O | 13 |
| Nc1ccccc1-n1c(=O)n(Cc2ccccc2F)c(=O)c2[nH]cnc21 | 7.56 |
| Cc1cccc([C@H](NC(=O)OC(C)(C)C)C(=O)OC(C)(C)C)c1 | 8.63 |
| O=C(NCC(=O)N1CCN(Cc2ccccc2)CC1)c1ccc(Br)cc1 | -9.27 |
| O=C(Nc1ccc(-n2cnnn2)cc1)C1CCCN1C(=O)NC1CCCCC1 (stereo not shown) | -36.5 |
| CCOC(=O)C1=C(CCl)NC(=O)NC1c1ccc2c(c1)OCO2 (stereo not shown) | 7.24 |
| C=CCn1c(O)c(/C=C/C=Nc2ccccc2)c(=O)[nH]c1=O | 22 |
| COc1ccc(N2CC(C(=O)Nc3nnc(SCC(=O)c4ccccc4)s3)CC2=O)cc1 (stereo not shown) | 18.5 |
| C#CCOCCOCCOCCNc1nc(N2CCOCC2)nc(N2CCN(C(=O)[C@H]([C@@H](C)CC)n3cc([C@@H](N)CO)nn3)CC2)n1.Cl | 3.38 |
| Cc1ccc(NC(=O)CSc2ncc(S(=O)(=O)c3ccccc3)c(=O)[nH]2)cc1C | 7.39 |
| C/C(=N\NC(=O)C1(C)CC1(Br)Br)c1cccc(NC(=O)C(C)(C)C)c1 (stereo not shown) | 4.12 |
| CCN(CC)c1nc(-c2ccccn2)nc(-c2ccccc2)c1C#N | 3.11 |
| CCOC(=O)c1c(C)sc2c1N(C(=O)CN1CCOCC1)c1cc(Cl)ccc1S2 | 1.5 |
| O=C(Cn1c(=O)c2cccn2c2ccccc21)NCCc1ccccc1 | 10.9 |
| COc1ccc(C2=NOC(C(=O)NCc3cccnc3)C2)cc1OC (stereo not shown) | 14.2 |
| COc1cc2ccc3c(CCN(C)C)cc(OC)c(OC)c3c2cc1OC.Cl | 11.7 |
| COc1ccc(C2/C(=C(\O)c3cc(C)ccc3C)C(=O)C(=O)N2CCN(C)C)cc1OC (stereo not shown) | -1.87 |
| O=C(CSc1ncnc2nc[nH]c12)c1ccc([N+](=O)[O-])cc1 | 14.8 |

| Compound | hERG current change (%, negative = inhibition) at 1uM [%] |
| --- | --- |
| CCCCn1c(C)c(C(=O)O)c2cc(OC)c3ccccc3c21 | 12.6 |
| C(=N\c1nc2ccccc2[nH]1)/c1cccs1 | 2.83 |
| Cc1nc(=O)cc(-c2ccccc2)n1-c1ccccc1 | 13.3 |
| COc1cccc(C(=O)Nc2nc(SCc3ccc(Cl)cc3)n[nH]2)c1 | 12.3 |
| O=C(NCC(F)(F)F)Nc1cccnc1 | 11.6 |
| O=C(O)C1(S(=O)(=O)c2ccc(Cl)cc2)CCC1 | 17.8 |
| Cn1ccsc1=NC(=O)c1ccccc1OC(F)F | 13.6 |
| Cc1cc(C)c2c(N=NN(C)C)[nH]nc2n1 | -0.958 |
| Cc1nnc(SCC(C)C)[nH]c1=O | 17.6 |
| Cc1ccc(CNC(=O)CCc2c(C)nc3c(c(C)nn3-c3ccc(C)cc3)c2C)cc1 | 8.69 |
| COc1ccc(NC(=O)CSc2nccn2Cc2ccco2)c(OC)c1 | 15.2 |
| CCOC(=O)c1c(NC(=S)Nc2ccc(Cl)cc2)sc2c1CCN(C)C2 | -57.4 |
| NC(=O)c1cc(C(=O)Cc2ccccc2)c[nH]1 | 11.4 |
| O=C(CC1Oc2ccccc2NC1=O)NC1CCCC1 (stereo not shown) | 12.4 |
| CCOC(=O)CC1=C(C(=O)OCC)C2(C(=O)Nc3ccccc32)C(C#N)=C(N)O1 (stereo not shown) | 5.54 |
| NS(=O)(=O)c1ccc(NS(=O)(=O)c2ccc3c(c2)OCCO3)cc1 | 14.3 |
| CC(=O)Nc1ccc(S(=O)(=O)NCCC(=O)OCC(=O)NNC(=O)c2ccccc2)cc1 | -0.169 |
| Cc1ccc(C(=O)OC(C)C(=O)NC2CCCCC2C)cc1S(=O)(=O)N1CCOCC1 (stereo not shown) | 9.52 |
| Cc1cc(Cl)ccc1OCCCC(=O)NNC(=O)c1ccccc1O | 8.86 |
| COC(=O)c1c(NC(=O)CSc2nnnn2-c2ccccc2)sc2c1CCC(C(C)(C)C)C2 (stereo not shown) | -2.67 |
| COc1cccc(NC(=O)Nc2cc(C(=O)O)ccc2N2CC3CC(C2)c2cccc(=O)n2C3)c1 (stereo not shown) | 14.3 |
| COc1ccc(C(=O)N/N=C/c2ccc(OC)c(OS(=O)(=O)c3ccccc3)c2)cc1 | 17.3 |
| CC(=O)Oc1c(C(C)C)cc(N(C(C)=O)c2ccccc2)cc1C(C)C | 12.1 |
| O=C(/C=C/c1ccc(Cl)cc1Cl)OCC(=O)N1CCCC1 | 5.54 |
| Cn1cccc1Cc1nnc(SCC(=O)N2CCN(c3ccccc3)CC2)n1-c1ccc(F)cc1 | 13.8 |
| O=C(Nc1ccc2c(c1)OCO2)c1cccs1 | 18.7 |
| Cc1cc(NC(=O)CSc2nnc(-c3cccnc3)n2Cc2ccccc2)no1 | 3.85 |
